# According to the supplement of paper PMC8728848:
# This is one part of the list.
# B1: SBD-G4S3-Fc (protein)
# chain: MASIPSSASVQLDSYNYDGSTFSGKIYVKNIAYSKKVTVVYADGSDNWNNNGNIIAASFSGPISGSNYEYWTFSASVKGIKEFYIKYEVSGKTYYDNNNSANYQVSTGGGGSGGGGSGGGGSEFVPRDCGCKPCICTVPEVSSVFIFPPKPKDVLTITLTPKVTCVVVDISKDDPEVQFSWFVDDVEVHTAQTQPREEQFNSTFRSVSELPIMHQDWLNGKEFKCRVNSAAFPAPIEKTISKTKGRPKAPQVYTIPPPKEQMAKDKVSLTCMITDFFPEDITVEWQWNGQPAENYKNTQPIMDTDGSYFVYSKLNVQKSNWEAGNTFTCSVLHEGLHNHHTEKSLSHSPGAA
# Experiments:
# Experiment in all cases: glycan array binding signal (z-score within array); higher = stronger binding
# Settings in all cases: glycan notation: IUPAC condensed, linker removed
# [1] = molecular target: GlcNAc(b1-3)Gal(b1-4)GlcNAc(b1-3)Gal(b1-4)GlcNAc(b1-3)GalNAc
# In short: (§1)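 Negative Z-scores can be read as non-binding. The Z-score is calculated within each array and then averaged across arrays of one protein sequence at different concentrations or buffers and across linkers. Arrays, 3228 in all, were curated from the Consortium for Functional Glycomics database and kept only where the protein sequence was available.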
# [2] = molecular target: GlcNAc(b1-3)Gal(b1-4)GlcNAc(b1-3)GalNAc
# In short: as §1
# [3] = molecular target: GlcNAc(b1-3)Gal(b1-4)GlcNAc(b1-3)[GlcNAc(b1-3)Gal(b1-4)GlcNAc(b1-3)]GalNAc
# In short: as §1
# [4] = molecular target: GlcNAc(b1-3)Gal(b1-4)GlcNAc(b1-6)[Gal(b1-3)]GalNAc
# In short: as §1
# [5] = molecular target: GlcNAc(b1-3)Gal(b1-4)GlcNAc(b1-6)[GlcNAc(b1-3)Gal(b1-3)]GalNAc
# In short: as §1
# [6] = molecular target: GlcNAc(b1-3)Gal(b1-4)GlcNAc(b1-6)[GlcNAc(b1-3)]Gal(b1-4)GlcNAc
# In short: as §1
# GlcNAc(b1-3)GalNAc = molecular target: GlcNAc(b1-3)GalNAc
# In short: as §1
# GlcNAc(b1-3)Man = molecular target: GlcNAc(b1-3)Man
# In short: as §1
# [7] = molecular target: GlcNAc(b1-3)[GlcNAc(b1-4)][GlcNAc(b1-6)]GlcNAc
# In short: as §1
# [8] = molecular target: GlcNAc(b1-3)[GlcNAc(b1-6)]Gal(b1-4)GlcNAc
# In short: as §1
# [9] = molecular target: GlcNAc(b1-3)[GlcNAc(b1-6)]GalNAc
# In short: as §1
# [10] = molecular target: GlcNAc(b1-4)Gal(b1-4)GlcNAc
# In short: as §1
# GlcNAc(b1-4)GlcNAc = molecular target: GlcNAc(b1-4)GlcNAc
# In short: as §1
# [11] = molecular target: GlcNAc(b1-4)GlcNAc(b1-4)GlcNAc
# In short: as §1
# [12] = molecular target: GlcNAc(b1-4)GlcNAc(b1-4)GlcNAc(b1-4)GlcNAc(b1-4)GlcNAc
# In short: as §1
# [13] = molecular target: GlcNAc(b1-4)GlcNAc(b1-4)GlcNAc(b1-4)GlcNAc(b1-4)GlcNAc(b1-4)GlcNAc
# In short: as §1
# [14] = molecular target: GlcNAc(b1-4)[GlcNAc(b1-6)]GalNAc
# In short: as §1
# [15] = molecular target: GlcNAc(b1-6)Gal(b1-4)GlcNAc
# In short: as §1
# GlcNAc(b1-6)GalNAc = molecular target: GlcNAc(b1-6)GalNAc
# In short: as §1
# [16] = molecular target: GlcNAc6S(b1-3)Gal(b1-4)GlcNAc
# In short: as §1
# Kdn(a2-3)Gal(b1-3)GalNAc = molecular target: Kdn(a2-3)Gal(b1-3)GalNAc
# In short: as §1
# Kdn(a2-3)Gal(b1-3)GlcNAc = molecular target: Kdn(a2-3)Gal(b1-3)GlcNAc
# In short: as §1
# Kdn(a2-3)Gal(b1-4)Glc = molecular target: Kdn(a2-3)Gal(b1-4)Glc
# In short: as §1
# Kdn(a2-3)Gal(b1-4)GlcNAc = molecular target: Kdn(a2-3)Gal(b1-4)GlcNAc
# In short: as §1
# [17] = molecular target: Kdn(a2-3)Gal(b1-4)[Fuc(a1-3)]GlcNAc
# In short: as §1
# Kdn(a2-6)Gal(b1-4)GlcNAc = molecular target: Kdn(a2-6)Gal(b1-4)GlcNAc
# In short: as §1
# [18] = molecular target: Man(a1-2)Man(a1-2)Man(a1-3)Man
# In short: as §1
# [19] = molecular target: Man(a1-2)Man(a1-2)Man(a1-6)[Man(a1-3)]Man
# In short: as §1
# Man(a1-2)Man(a1-3)Man = molecular target: Man(a1-2)Man(a1-3)Man
# In short: as §1
# [20] = molecular target: Man(a1-2)Man(a1-3)[Man(a1-2)Man(a1-6)]Man
# In short: as §1
# [21] = molecular target: Man(a1-2)Man(a1-3)[Man(a1-2)Man(a1-6)]Man(a1-6)[Man(a1-2)Man(a1-2)Man(a1-3)]Man
# In short: as §1
# [22] = molecular target: Man(a1-2)Man(a1-3)[Man(a1-2)Man(a1-6)]Man(a1-6)[Man(a1-2)Man(a1-2)Man(a1-3)]Man(b1-4)GlcNAc(b1-4)GlcNAc
# In short: as §1
# [23] = molecular target: Man(a1-2)Man(a1-3)[Man(a1-6)]Man(a1-6)[Man(a1-2)Man(a1-3)]Man(b1-4)GlcNAc(b1-4)GlcNAc
# In short: as §1
# [24] = molecular target: Man(a1-2)Man(a1-6)[Man(a1-3)]Man(a1-6)[Man(a1-2)Man(a1-2)Man(a1-3)]Man
# In short: as §1
# [25] = molecular target: Man(a1-2)Man(a1-6)[Man(a1-3)]Man(a1-6)[Man(a1-2)Man(a1-2)Man(a1-3)]Man(b1-4)GlcNAc(b1-4)GlcNAc
# In short: as §1
# Man(a1-3)[Man(a1-6)]Man = molecular target: Man(a1-3)[Man(a1-6)]Man
# In short: as §1
# [26] = molecular target: Man(a1-3)[Man(a1-6)]Man(a1-6)[Man(a1-2)Man(a1-3)]Man(b1-4)GlcNAc(b1-4)GlcNAc
# In short: as §1
# [27] = molecular target: Man(a1-3)[Man(a1-6)]Man(a1-6)[Man(a1-3)]Man
# In short: as §1
# [28] = molecular target: Man(a1-3)[Man(a1-6)]Man(a1-6)[Man(a1-3)]Man(b1-4)GlcNAc(b1-4)GlcNAc
# In short: as §1
# [29] = molecular target: Man(a1-3)[Man(a1-6)]Man(b1-4)GlcNAc(b1-4)GlcNAc
# In short: as §1
# [30] = molecular target: Man(a1-3)[Man(a1-6)]Man(b1-4)GlcNAc(b1-4)[Fuc(a1-6)]GlcNAc
# In short: as §1
# Man(a1-6)Man = molecular target: Man(a1-6)Man
# In short: as §1
# Man(b1-4)GlcNAc = molecular target: Man(b1-4)GlcNAc
# In short: as §1
# MurNAc(b1-4)GlcNAc = molecular target: MurNAc(b1-4)GlcNAc
# In short: as §1
# Neu5Ac(a2-3)Gal = molecular target: Neu5Ac(a2-3)Gal
# In short: as §1
binder,measurement,setting,value
B1,glycan array binding signal (z-score),[1],-0.065
same,glycan array binding signal (z-score),[2],-0.075
same,glycan array binding signal (z-score),[3],0.059
same,glycan array binding signal (z-score),[4],-0.034
same,glycan array binding signal (z-score),[5],-0.032
same,glycan array binding signal (z-score),[6],-0.141
same,glycan array binding signal (z-score),GlcNAc(b1-3)GalNAc,-0.174
same,glycan array binding signal (z-score),GlcNAc(b1-3)Man,0.149
same,glycan array binding signal (z-score),[7],0.107
same,glycan array binding signal (z-score),[8],-0.361
same,glycan array binding signal (z-score),[9],0.067
same,glycan array binding signal (z-score),[10],-0.117
same,glycan array binding signal (z-score),GlcNAc(b1-4)GlcNAc,-0.319
same,glycan array binding signal (z-score),[11],-0.358
same,glycan array binding signal (z-score),[12],-0.26
same,glycan array binding signal (z-score),[13],-0.372
same,glycan array binding signal (z-score),[14],0.069
same,glycan array binding signal (z-score),[15],0.105
same,glycan array binding signal (z-score),GlcNAc(b1-6)GalNAc,-0.224
same,glycan array binding signal (z-score),[16],-0.273
same,glycan array binding signal (z-score),Kdn(a2-3)Gal(b1-3)GalNAc,-0.036
same,glycan array binding signal (z-score),Kdn(a2-3)Gal(b1-3)GlcNAc,-0.263
same,glycan array binding signal (z-score),Kdn(a2-3)Gal(b1-4)Glc,0.095
same,glycan array binding signal (z-score),Kdn(a2-3)Gal(b1-4)GlcNAc,-0.256
same,glycan array binding signal (z-score),[17],0.004
same,glycan array binding signal (z-score),Kdn(a2-6)Gal(b1-4)GlcNAc,0.204
same,glycan array binding signal (z-score),[18],-0.438
same,glycan array binding signal (z-score),[19],-0.048
same,glycan array binding signal (z-score),Man(a1-2)Man(a1-3)Man,-0.16
same,glycan array binding signal (z-score),[20],-0.139
same,glycan array binding signal (z-score),[21],-0.272
same,glycan array binding signal (z-score),[22],-0.404
same,glycan array binding signal (z-score),[23],-0.329
same,glycan array binding signal (z-score),[24],-0.291
same,glycan array binding signal (z-score),[25],-0.386
same,glycan array binding signal (z-score),Man(a1-3)[Man(a1-6)]Man,-0.031
same,glycan array binding signal (z-score),[26],-0.1
same,glycan array binding signal (z-score),[27],0.058
same,glycan array binding signal (z-score),[28],-0.295
same,glycan array binding signal (z-score),[29],-0.314
same,glycan array binding signal (z-score),[30],-0.118
same,glycan array binding signal (z-score),Man(a1-6)Man,-0.195
same,glycan array binding signal (z-score),Man(b1-4)GlcNAc,-0.231
same,glycan array binding signal (z-score),MurNAc(b1-4)GlcNAc,-0.28
same,glycan array binding signal (z-score),Neu5Ac(a2-3)Gal,-0.327
